The other results are listed elsewhere or left out.

Sequences and labels used below:
B1: chr10:7844279:7844280:+_ENSG00000165629_ENST00000356708|hu_hu|motif|central (ssRNA)
RNA: GGGAGUUCUACAGUCCGACGAUCCUCAGAAGCAUUCUUGCUGGCAUUGUCCAUGGCUGUCAUCCUGGCACUCUGCUCACGGGUGGUGGACUCCUUCAGAGAGUAGUAGAUGAUGUUGGCCAGAUUGUAUUCUUGGUAAUUUUGCAACAGAGGAUUGAGCAUCA
B2: chr4:115894766:115894767:+_ENSMUSG00000028698_ENSMUST00000030464|mus_hu|mus_mus_mus_hu_True|8_78 (ssRNA)
RNA: GGGAGUUCUACAGUCCGACGAUCUUCCACACGGAAAUGUACUUCGGGUUUUCCAACGCCAGUACAAAGUCCGGCCAAACUACCCGAACAGGGUCCUCCCCCUCUCUCCUACAGAACACAACAAAAUAACAAAAUACUUUCAAGCAACAGAGGAUUGAGCAUCA
B3: chr1:29069439:29069440:+_ENSG00000198492_ENST00000541996|hu_mus|FALSE|FALSE (ssRNA)
RNA: GGGAGUUCUACAGUCCGACGAUCGCUGGUUUUGGAGGAGCAAUAGUAGCUGGAGGCAAACUGCUAGAAGCCACAAUGUUACUAGUGAUGGACCCACUACCAACAGCAGAGCCUACAACUUUUGGAACACUGCUUGCAACUUCUCAACAGAGGAUUGAGCAUCA
B4: chr11:87793471:87793472:-_ENSMUSG00000020483_ENSMUST00000020775|mus_mus|mus_mus_mus_hu_False|18_68 (ssRNA)
RNA: GGGAGUUCUACAGUCCGACGAUCUGGACUUGAAAAUAAAAGAAUAAGCUGGAUCCCCCACCCCCCCACAGUGUCAACCCUACACGAGAGUUUUGAAGGCGACUCAUGAAAAUCAGCCUCAAUUGGCGCAAUGACCACCCCACCCAACAGAGGAUUGAGCAUCA
B5: chr19:16212804:16212805:+_ENSG00000167460_ENST00000300933|hu_mus|hu_hu_hu_mus_False|58_68 (ssRNA)
RNA: GGGAGUUCUACAGUCCGACGAUCAACAAUUCUGGAGUGAAGGAAAGAUGUAACAUGGAACAGCAUUCCAUCUAUUAAUUACUAUAUAUGGGCAACAAUGAUCACCCCAGCAUUCUCGCUUGGAAUGCUUAAAGACAAUCUGUUCAACAGAGGAUUGAGCAUCA
B6: 82114108_82114841_502_3pUTR_ENSMUSG00000022456_ENSMUST00000023095|mouse|control|control (ssRNA)
RNA: GGGAGUUCUACAGUCCGACGAUCUUCGUACUGUUCGUUGAUGUAUUUCUCAAUGGGCUCCCAGCAGUUUUCAUUGUUGAUCUGGUCUCCAAAGCCUGGUGUGUCGAUGACUGUCAGCUUCAUUUUGACACCACCUUCCUCUAUCAACAGAGGAUUGAGCAUCA

This experiment deals with T1, UNK ZnF1-3 (human, UniProt Q9C0B0 31-174).
T1 sequence: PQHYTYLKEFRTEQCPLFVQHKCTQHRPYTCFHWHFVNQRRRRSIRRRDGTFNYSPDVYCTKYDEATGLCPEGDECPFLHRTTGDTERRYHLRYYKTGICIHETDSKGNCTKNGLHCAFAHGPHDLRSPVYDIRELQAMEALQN
Briefly: nsRBNS (natural sequence RNA bind-n-seq); RBNS binding buffer (assumed for nsRBNS): 25 mM Tris pH 7.5, 150 mM KCl, 3 mM MgCl2, 0.01% Triton X-100, 500 ug/ml BSA, 20 U/ml SUPERase-In, 4 C; UNK is unkempt and MSI1 is Musashi-1; names of the RNAs are library labels; protein concentration not given here; high values mean tight binding.
For the molecule B1, the binding signal came out at 0.802 enrichment R. With B2, the binding signal was 1.22 enrichment R. With B3 the figure was 1.23 enrichment R; with B4, 1.72 enrichment R; with B5, 0.969 enrichment R. Take B6: the binding signal was 0.345 enrichment R.

(Values after paper PMC12136788.)
